# The supplement of paper PMC10126150
# Values marked as one replicate rest on one cluster of the flow cell; about a third of the high ones do not repeat.
# System: ATP
# Experiment: switch fluorescence ratio, 500 uM ATP over buffer (Cy3 cluster intensity, sum of 5 cycles each) (fold (ratio)); higher = stronger signal-on switching upon ATP binding; sequences stand for … in TCGTCGGCAGCGTCAGATGTGTATAAGAGACAGTTTTTTTTTTTTTTTTTTTTTTTTT…TC
# Details: aptamer strand: ATP DNA aptamer (quencher-CACCTGGGGGAGTATTGCGGAGGAAGG + anchor), 100 nM annealed; ATP concentration: 500 uM; one replicate
# Method in brief: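 Per cluster, summed Cy3 intensity from the target cycles was divided by that from the buffer cycles to give the fluorescence ratio, then averaged per switch-domain sequence. Clusters outside 100-1000 RFU were excluded. The Cy3-labelled switching-strand clusters, on a modified Illumina MiSeq flow-cell, were annealed to 100 nM quencher-labelled ATP aptamer and imaged in selection buffer, then after 15 min with 500 uM ATP at 22 °C, for five cycles with NaOH stripping and re-annealing between them.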
# 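Further: ATP exposure 15 min at 22 °C before imaging.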
row,Sequence,switch fluorescence ratio
1,GAGCTGGCTG,0.986
2,ATCTTCACTT,1.02
3,ACCATTACCG,1.2
4,ATATCAACTA,1.01
5,GGCTCGCGTA,1.17
6,GGGACTGCA,1.03
7,TTTTGCTTAC,2.06
8,AGGTGGGAG,0.986
9,CAGGTTTGCC,1.04
10,GCTCATTTGG,0.945
11,ACCACCCGAG,1.17
12,CATAACGGA,1
13,GAATTTTCCT,1.03
14,ACATTAAATG,0.974
15,GCGGGGAAAG,1.02
16,ACTAATTGTA,1.04
17,AAAATCCGGA,1.04
18,GATGGAGATC,1.04
19,GTCGGGAGCG,1.09
20,TTTGCTACTA,1.07
21,CGTTGTGCCT,1.03
22,GCGATATACT,1.66
23,CTTGTAACTC,1.03
24,AGGAGGCAGC,0.959
25,CGAGATGGCT,0.991
26,GAACTGAGTT,1.01

row,Sequence,switch fluorescence ratio
1,TGTTCCTACG,2.25
2,GCGTCCTTCT,1.02
3,TGCGTGTGGC,1.01
4,AGTTAATCTT,0.968
5,TAAGTCGGTA,1.01
6,TCTTATGTAT,1.03
7,TTACCAGAGG,0.983
8,AAGTGCGTCT,1.07
9,GCAAGTAGAT,0.986
10,CGTTAGGTGG,0.967
11,GACATATAAA,1.02
12,CAAGGAGTCG,1.06
13,CGATTTTCTG,1.01
14,ATAGTTATCA,0.999
15,CGTCAACCTA,1.06
16,TGAGAGATTA,0.978
17,AGGTCTGGAA,0.975
18,ACGTGTTAAG,1.09
19,CGTGGAGCCC,0.95
20,TTGAACCCT,1.05
21,TAGTGGGTAC,1.01
22,ATACTATCCA,0.986
23,TGAGCGTGT,1.05
24,CGCGTTTTGT,0.991
25,GGTGTCTTA,1
26,TTCCGATTAA,1.03

row,Sequence,switch fluorescence ratio
1,ATTACATGTG,0.987
2,GGATCATTCT,0.989
3,ACAAGGTAAG,0.988
4,TTAAAATTAC,1.11
5,CTCGGGCTAA,1.09
6,ACCGAGCGCA,3.1
7,CCAAAACGTC,1.01
8,TACATGAGAA,1.02
9,GGTTTTTG,0.988
10,ATGCACTCCG,1.23
11,TGGCCTTTCA,1.01
12,GCCAGACGTC,0.997
13,AGAGAGTTGC,1.02
14,TACACCGGGT,1.11
15,TTATACGATT,0.993
16,CATCATTCAG,0.994
17,GACATATGGA,1.01
18,CATGCCCCCA,1.06
19,AGCCGTTGCC,0.983
20,TCCGTTTTC,1.13
21,CAAGTCGGCT,1
22,CCCGTGGTGG,1.03
23,AGGTGCGCCT,0.965
24,GCCTGGTAGA,0.996
25,CTATGGTG,1.04
26,TACTGAGGGC,1.06

row,Sequence,switch fluorescence ratio
1,ATGTAATGAA,0.974
2,TGACAGACTA,1.07
3,GAGTGCCGCG,1.02
4,CGAACTATGC,1.46
5,AGTTGCTTGC,0.94
6,GGGTATGTGC,1.02
7,GACTTCTTCA,1.04
8,CGCCAAACCT,2.53
9,ACCCCTCTCA,1.06
10,CTGTTGAACT,0.994
11,CAGGTTAGAC,1.34
12,GTAGAAACGG,0.982
13,CTTTTTAGGG,0.998
14,CGTCGAGATG,0.998
15,GGCGTATTTT,0.977
16,GCAGAGGCTC,1.02
17,TAGTTGATCC,1.01
18,TCAACCAGGA,1.1
19,GATGAGGGGC,0.807
20,CTAATGACAT,0.996
21,AGAATATTGC,1.02
22,GTTGCTCGTT,0.958
23,GGAATTGGAC,1.03
24,TGATCGTTTG,0.93
25,CCTCATGGGA,1.06
26,TCGGCGGGAT,1.01

row,Sequence,switch fluorescence ratio
1,TTCGATATCG,1.02
2,AACGTATCTA,1.1
3,GAAGTCCGAA,0.976
4,GAGGACTGTT,1.14
5,TCCAAGGTTT,1.06
6,CGTGGCACTG,1.01
7,GTTGACCGTG,0.976
8,AACATCGTGA,0.974
9,ATGGTCCTTG,0.981
10,TCGGACAGAC,1.28
11,CAAAGTGT,1
12,CGTCTGGGC,0.981
13,CTTCCTACAA,3.36
14,AGTGGTAATC,1.01
15,TAAGTAGTTG,0.966
16,TTTCGTCGTG,1.03
17,TCAATATGGT,1.01
18,TATTAACTCG,0.964
19,CGACTAGGCA,1
20,AATTAACCG,1.03
21,CCTCGTCCGT,1.27
22,CCTGGGTATG,1.01
23,GAGGAATAGC,1.05
24,AGAACCCATC,0.979
25,TAAAAGTAT,1.01
26,TGACCGGGGT,1.01

row,Sequence,switch fluorescence ratio
1,ATGTTCCACC,1.06
2,AGCTCTCGCC,1.07
3,ACGAGCTGAT,1.09
4,GTAGTCTA,1.02
5,TCGGGGCTTA,0.996
6,TACAGCCCAC,1.18
7,GGCGACGGCG,1.01
8,CTGATGAGGG,0.941
9,ATGCAGATTG,1.01
10,TGACCAGTAA,1.02
11,CCTTTGTCGT,1.05
12,TTACCTCCAT,1.07
13,GACAGCACGG,1.15
14,CGGTTCCTCT,1
15,GCCTAACGGC,0.992
16,CTGGGGGCAT,1.06
17,GGAGTTAAAC,0.995
18,GCAGTGAGGA,1.01
19,AATAGCCGGT,1.01
20,CCAGGACTAT,1.01
21,TTGCACTGCT,1.2
22,TGCAACGCCC,1.05
23,TAACTATTAT,1.02
24,TAAGGCGCGG,1
25,CTCGAATCTA,0.979
26,ATGATGGTGC,1.13

row,Sequence,switch fluorescence ratio
1,GAGGTCGTGC,0.981
2,CTTTTGCTTG,0.988
3,ACGATTTTCA,1.01
4,TTGACATTCT,0.961
5,GGGAATTGCG,1.01
6,CACGGTTATT,1.09
7,ACATAGTTCT,1.06
8,GTCGACGCGC,1.26
9,GCCTTCCCGT,2.26
10,TCTGCACTAA,1.6
11,GATGGGCATG,0.987
12,AGAAACTGGC,1.03
13,GTGCCCCAA,1.02
14,AGCATACCCC,2.77
15,GGATCGGGA,1.03
16,GTTGAAGTCG,1
17,ACGGGGAGTG,0.936
18,GTTGTTGGTT,1.01
19,CATGAGCAAC,1.95
20,ATTAGGTGTG,0.984
21,GCGATCCGAC,1.49
22,GATACTGCTA,1.03
23,TTTAAACACG,1.03
24,GTTTCACGGC,0.996
25,AGAACCTGTG,1.02
26,CATACACATA,1.08

row,Sequence,switch fluorescence ratio
1,CAAAAGCCCT,1.01
2,CGCAGCCCGA,1.22
3,ACCATGAGGT,0.947
4,TGTCCCAAAT,0.994
5,AAATTTACC,1.02
6,TGCGGTTGCA,1.01
7,ATGCGTTGAA,0.996
8,AGCTGGATTA,0.984
9,GAACGGGGGC,1.09
10,TATATTACCG,1.05
11,GCTATAGCCG,0.976
12,CTGTTCACTG,0.993
13,GAGGGTTTAA,0.967
14,GATGCGAATA,1.13
15,TCGAATAACA,1
16,AGCAAGTAAC,1.95
17,TTAGCAGGGG,1.08
18,CGTAAATATT,0.968
19,TGGTTAGGAA,1.03
